Source: PubChem BioAssay AID686979 (National Center for Advancing Translational Sciences (NCATS), 2013)
Among all 420,000 compounds or so, about 50,000 (12%) were called active. Inconclusive results, whose numbers are uncertain, are shown with a selection of clear calls. The call rests on the fitted dose curve; in most records, active means well fitted inhibition curve with a large enough effect; inconclusive means small, poorly fitted or top-dose-only effect; inactive means flat fitted curve, though single readings scatter. No potency is given beside an inconclusive call; the fits are too rough.

assay: qHTS for Inhibitors of human tyrosyl-DNA phosphodiesterase 1 (TDP1): qHTS in cells in presence of CPT; details: chicken DT40 Tdp1-/-;hTDP1 cells + 20 nM CPT, ATP luminescence, 48 h; series mostly up to 46.2 µM; further: nearly all actives have a fitted effect of over 55% in size
How it was run: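 Cell growth measured by CellTiter-Glo luminescence after a minimum 48 h, 37 C compound exposure with 20 nM CPT in Tdp1-knockout DT40 cells stably expressing hTDP1, seeded 400/well; qHTS titration format.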
Potency means the concentration at half of the fitted maximal effect; tags describe the fitted curve by direction and shape.

| SMILES | Potency |
| --- | --- |
| Cc1ccc(/C=C/C(=O)NCc2ccccn2)o1 | inconclusive [inhibitor, single point] |
| COc1ccc2c(Sc3ccccc3)c(C(=O)N3CCC(C)CC3)[nH]c2c1 | active: 20.6 µM |
| CCOc1ccc(-n2c(C)nc3c(cnn3-c3ccc(Cl)cc3)c2=O)cc1 | inactive |
| N#C/C(=C\c1ccc(Cl)cc1)c1nc2ncccc2[nH]1 | inconclusive [inhibitor, single point] |
| Cc1ccc(N2C(=O)CSC23C(=O)N(CC(=O)Nc2ccc(C)cc2C)c2ccccc23)cc1 (stereo not given) | inconclusive [inhibitor, single point] |
| O=C(Nc1ccc(N2CCCC2)c(Cl)c1)c1cccnc1 | inconclusive [inhibitor, single point] |
| Cc1ccc(NC(=O)CCCN2C(=O)COc3ccc(C)cc32)c(C)c1 | inconclusive [inhibitor, single point] |
| CC(C)N1CC=C2C(C#N)=C(N)C(C#N)(C#N)C(c3ccccc3)C2C1 (stereo not given) | inconclusive [inhibitor, single point] |
| O=C(COC(=O)c1ccccc1OCc1ccc(Cl)cc1)NC1CC1 | inconclusive [inhibitor, single point] |
| CCCCn1nc(C(=O)NCC(c2cccs2)N2CCOCC2)c2ccccc2c1=O (stereo not given) | inconclusive [inhibitor, single point] |
| Cc1cc(C)cc(-n2ncc3c2CCCC3NC(=O)c2ccccc2N2CCOCC2)c1 (stereo not given) | inconclusive [inhibitor, single point] |
| CCc1ccc(C(=O)CSc2nc(-c3ccccc3)nc3c2CCCC3)cc1 | inactive |
| CCC1Sc2ccc(S(=O)(=O)CCC(=O)NCc3ccc(C)o3)cc2NC1=O (stereo not given) | inconclusive [inhibitor, partial curve] |
| CCCCCn1c(=O)c(Cc2ccccc2)c(O)c2ccccc21 | inactive |
| Cc1cc(C)cc(C(=O)OCC(=O)NC2CCCC2)c1 | inactive |
| COC(=O)c1cccc(NC(=S)Nc2cccc(Cl)c2C)c1 | inconclusive [inhibitor, single point] |
| COc1cccc2cc(-c3nnc(SCC(=O)Nc4ccc(NC(C)=O)cc4)n3C)oc12 | inactive |
| CN1CCN(C(=O)C2=C[C@H](c3ccccc3)C[C@H](OCc3ccc(CO)cc3)O2)CC1 | inactive |
| O=P(Cc1cc(Br)cc(Br)c1OCCO)(c1ccccc1)c1ccccc1 | inconclusive [inhibitor, full curve, poor fit] |
| O=C(NC(=S)Nc1ccc(Cl)cn1)C12CC3CC(CC(C3)C1)C2 | inconclusive [inhibitor, single point] |
